# Measured values: article PMC4336329 (PLoS ONE, 2015)
# Screen size: about 310,000 compounds; about 2,200 (0.71%) showed an effect of 50% or more. The effect is printed as a negative number. This is one part of the list.
# Target: human ether-à-go-go-related gene (hERG) potassium channel (human, UniProt Q12809)
# Assay: primary screen, population patch clamp on CHO cells stably expressing hERG
# Sequence of human ether-à-go-go-related gene (hERG) potassium channel (Q12809 whole entry, looked up): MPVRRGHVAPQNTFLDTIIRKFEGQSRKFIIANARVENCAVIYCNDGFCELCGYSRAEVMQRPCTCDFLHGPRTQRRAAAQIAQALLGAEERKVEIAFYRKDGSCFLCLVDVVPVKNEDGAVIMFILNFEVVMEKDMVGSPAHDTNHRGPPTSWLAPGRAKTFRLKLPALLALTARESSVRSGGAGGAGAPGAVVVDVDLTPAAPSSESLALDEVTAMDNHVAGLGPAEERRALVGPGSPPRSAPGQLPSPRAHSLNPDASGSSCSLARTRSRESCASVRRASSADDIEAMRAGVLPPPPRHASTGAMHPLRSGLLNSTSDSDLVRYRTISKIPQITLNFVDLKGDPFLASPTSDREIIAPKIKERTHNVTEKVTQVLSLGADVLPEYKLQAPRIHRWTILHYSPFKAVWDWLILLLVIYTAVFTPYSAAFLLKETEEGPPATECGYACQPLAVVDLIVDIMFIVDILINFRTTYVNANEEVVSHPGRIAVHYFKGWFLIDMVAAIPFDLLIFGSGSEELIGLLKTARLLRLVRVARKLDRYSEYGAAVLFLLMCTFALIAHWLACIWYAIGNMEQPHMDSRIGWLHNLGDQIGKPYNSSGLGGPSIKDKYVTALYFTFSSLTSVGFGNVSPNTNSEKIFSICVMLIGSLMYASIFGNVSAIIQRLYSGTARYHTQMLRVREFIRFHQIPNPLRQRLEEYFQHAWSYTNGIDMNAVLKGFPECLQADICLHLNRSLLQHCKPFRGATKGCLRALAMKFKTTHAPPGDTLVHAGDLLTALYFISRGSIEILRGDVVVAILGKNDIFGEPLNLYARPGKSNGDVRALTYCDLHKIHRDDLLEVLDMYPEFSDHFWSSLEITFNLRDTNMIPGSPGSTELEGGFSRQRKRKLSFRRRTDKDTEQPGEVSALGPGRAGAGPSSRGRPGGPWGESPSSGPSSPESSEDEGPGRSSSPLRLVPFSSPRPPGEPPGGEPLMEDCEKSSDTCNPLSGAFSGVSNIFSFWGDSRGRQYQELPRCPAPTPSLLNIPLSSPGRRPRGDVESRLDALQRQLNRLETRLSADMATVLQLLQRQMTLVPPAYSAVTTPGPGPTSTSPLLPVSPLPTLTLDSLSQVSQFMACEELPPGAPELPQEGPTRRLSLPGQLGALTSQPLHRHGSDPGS
row,SMILES,"hERG current change (%, negative = inhibition) at 1uM"
1,COc1ccc([N+](=O)[O-])cc1NC(=O)C(C)OC(=O)c1ccccn1 (centres unmarked),7.24%
2,COc1ccccc1/C=C/C=N/Nc1cccc(C(=O)O)c1,17%
3,O=C(NCC1CCCO1)c1nnc(Cc2ccc(F)cc2)o1 (centres unmarked),13.2%
4,COc1ccc(-n2nnnc2CNC(=O)c2ccc3ccccc3c2)cc1,4.76%
5,CCOC(=O)N1CCC(N2CCN(S(=O)(=O)c3ccc(Cl)cc3)CC2)CC1.O=C(O)C(=O)O,-4.5%
6,CC(=O)Nc1ccc(S(=O)(=O)NCCS(=O)(=O)N2CCN(c3ccccc3F)CC2)cc1,13%
7,CC1CCN(C(=S)NC2CCCCC2)CC1,-3.23%
8,Cc1cc(C)cc(OC(=O)CS(=O)c2ccc(C(F)(F)F)cc2[N+](=O)[O-])c1 (centres unmarked),1.21%
9,Cc1ccccc1Nc1ccc2nonc2c1[N+](=O)[O-],8.57%
10,COc1ccccc1-c1nnc(NC(=O)CCS(=O)(=O)c2ccccc2)o1,15.6%
11,Cc1nc([N+](=O)[O-])cn1CC(=O)c1ccc(Br)cc1,16.3%
12,COCCCNC(=O)C1CC(=O)N(Cc2ccc(OC)cc2)C1 (centres unmarked),19.3%
13,O=C(NCCN1C(=O)S/C(=C/c2cccnc2)C1=O)C1CC(=O)N(Cc2ccccc2)C1 (centres unmarked),5.09%
14,CC(C)c1ccc(CN(C(=O)c2ccco2)C2CCS(=O)(=O)C2)cc1 (centres unmarked),12.6%
15,O=S(=O)(NC(=NC1CCCC1)C(F)(F)F)c1ccccc1,3.54%
16,CCC(CC)NCC(O)COc1ccc(Br)cc1.O=C(O)C(=O)O (centres unmarked),-3.02%
17,COc1ccccc1C(=O)N/N=C/c1c[nH]c2ccccc12,8.55%
18,O=C(COC(=O)c1cc([N+](=O)[O-])ccc1N1CCOCC1)Nc1ccc(Cl)cn1,-8.14%
19,COc1ccccc1NC(=O)CSc1nnc(-c2ccc(NC(C)=O)cc2)n1C,5.8%
20,Cc1cc(C)cc(OCc2nnc(SCC(=O)Nc3ccccc3)o2)c1,-5.69%
21,COc1ccc(/C=N/NC(=O)COc2cc(C)cc(C)c2)cc1COC(C)=O,3.16%
22,N/C(=N\OC(=O)CCC1CCCC1)c1ccccn1,1.29%

row,SMILES,"hERG current change (%, negative = inhibition) at 1uM"
1,CN1CCN(C(=O)c2ccc3c(c2)N(C)C(=O)/C(=C/c2cccc(Cl)c2)S3)CC1,15.8%
2,Cc1cccc(C(=O)N2CCC(c3nc4ccccc4s3)CC2)c1,1.54%
3,CCOC(=O)c1sc2nc(C)n(CC(=O)NCC3CCCO3)c(=O)c2c1C (centres unmarked),8.04%
4,CNc1nc2c3ccccc3n(C(C)=O)c2s1,4.27%
5,c1ccc2c(NC3C4CC5CC(C4)CC3C5)nc(N3CCOCC3)nc2c1 (centres unmarked),6.13%
6,Cc1ccc(C(=O)N2CCN(c3ccccn3)CC2)cc1Cl,6.33%
7,CN(C)c1ccc(NC(=O)c2cccc(C(=O)Nc3ccc(N(C)C)cc3)n2)cc1,-1.63%
8,CCN1CCN(C(CNS(=O)(=O)c2ccc(Cl)cc2)c2ccccc2)CC1 (centres unmarked),-35.6%
9,Nc1nnc(SCc2nc3scc(-c4ccccc4)c3c(=O)[nH]2)s1,15.6%
10,O=C(COC(=O)CCS(=O)(=O)c1ccc(Cl)cc1)NC1CCCCC1,5.91%
11,O=C(NN1C(=O)NC2(CCCCC2)C1=O)c1ccc(Cl)c(Cl)c1,-2.79%
12,COc1ccccc1CNC(=O)C(=O)NCC1OCCN1C(=O)c1cccs1 (centres unmarked),18.7%
13,Cc1ccc(OCC(=O)N2CCCC(CCC(=O)N(C)CCc3ccccn3)C2)cc1 (centres unmarked),14.3%
14,CCc1ccc(NC(=O)COC(=O)/C=C/c2c(C)nn(C3CCS(=O)(=O)C3)c2Cl)cc1 (centres unmarked),21.7%
15,CC1CCC2(CC1)NC(CO)(CO)CO2 (centres unmarked),11.2%
16,OCCCC1CCCCN1Cc1nc(Cc2ccccc2Cl)no1 (centres unmarked),-65.5%
17,O=C1c2ccccc2C(Nc2ccc3c(c2)OCCO3)N1Cc1ccc2c(c1)OCO2 (centres unmarked),4.35%
18,Nc1nc(Sc2c([N+](=O)[O-])cc(C(F)(F)F)cc2[N+](=O)[O-])n[nH]1,4.93%
19,CN1CCN(CCC(=O)Nc2cccc(F)c2)CC1,13%
20,O=c1[nH]c(SCc2cccc(Cl)c2)nc2[nH]ncc12,8.82%
21,COC(=O)c1ccc(COC(=O)Cc2n[nH]c(=O)c3ccccc23)cc1,7.76%
22,COc1ccc(C2c3c(oc4ccccc4c3=O)C(=O)N2c2ccc(C)cn2)cc1OC (centres unmarked),-0.607%
